# Experimental data as given in patent US11618753B2 (priority 2018, dated 2023).
# Tested on: MLKL phosphorylation, HT29-L23 human colorectal adenocarcinoma cells
# Test: cells
# Conditions: read-out: pMLKL HCS Cell Assay (IC50, uM)
row,Structure (SMILES),IC50 [µM]
1,"Cc1cc(-c2cc(C(F)(F)F)c3c(N)ncnn23)cc(C(=O)N[C@@H]2CN(C(=O)C(C)(C)O)C[C@@H]2F)c1Cl [Example 707, 5-[4-amino-5-(trifluoromethyl)pyrrolo[2,1-f][1,2,4]triazin-7-yl]-2-chloro-N-[(3R,4S)-4-fluoro-1-(2-hydroxy-2-methylpropanoyl)pyrrolidin-3-yl]-3-methylbenzamide]",0.036
2,"Cc1cc(-c2cc(C(F)(F)F)c3c(N)ncnn23)cc(C(=O)N[C@@H]2CN(C(=O)c3ccccc3F)C[C@@H]2F)c1Cl [Example 708, 5-[4-amino-5-(trifluoromethyl)pyrrolo[2,1-f][1,2,4]triazin-7-yl]-2-chloro-N-[(3R,4S)-4-fluoro-1-(2-fluorobenzoyl)pyrrolidin-3-yl]-3-methylbenzamide]",0.0093
3,"Cc1cc(-c2cc(C(F)(F)F)c3c(N)ncnn23)cc(C(=O)N[C@@H]2CN(C(=O)CC(C(F)(F)F)C(F)(F)F)C[C@@H]2F)c1Cl [Example 709, 5-[4-amino-5-(trifluoromethyl)pyrrolo[2,1-f][1,2,4]triazin-7-yl]-2-chloro-N-[(3R,4S)-4-fluoro-1-[4,4,4-trifluoro-3-(trifluoromethyl)butanoyl]pyrrolidin-3-yl]-3-methylbenzamide]",0.0044
4,"Cc1cc(-c2cc(C(F)(F)F)c3c(N)ncnn23)cc(C(=O)N[C@@H]2CN(C(=O)C3CCC(F)(F)C3)C[C@@H]2F)c1Cl (stereo partly drawn) [Example 710, 5-[4-amino-5-(trifluoromethyl)pyrrolo[2,1-f][1,2,4]triazin-7-yl]-2-chloro-N-[(3R,4S)-1-(3,3-difluorocyclopentanecarbonyl)-4-fluoropyrrolidin-3-yl]-3-methylbenzamide]",0.014
5,"Cc1cc(-c2cc(C(F)(F)F)c3c(N)ncnn23)cc(C(=O)N[C@@H]2CN(C(=O)CC(C)(O)C(F)(F)F)C[C@@H]2F)c1Cl (stereo partly drawn) [Example 711, 5-[4-amino-5-(trifluoromethyl)pyrrolo[2,1-f][1,2,4]triazin-7-yl]-2-chloro-N-[(3R,4S)-4-fluoro-1-(4,4,4-trifluoro-3-hydroxy-3-methylbutanoyl)pyrrolidin-3-yl]-3-methylbenzamide]",0.012
6,"Cc1cc(-c2cc(C(F)(F)F)c3c(N)ncnn23)cc(C(=O)N[C@@H]2CN(C(=O)C3CCC(F)(F)CC3)C[C@@H]2F)c1Cl [Example 712, 5-[4-amino-5-(trifluoromethyl)pyrrolo[2,1-f][1,2,4]triazin-7-yl]-2-chloro-N-[(3R,4S)-1-(4,4-difluorocyclohexanecarbonyl)-4-fluoropyrrolidin-3-yl]-3-methylbenzamide]",0.031
7,"Cc1cc(-c2cc(C(F)(F)F)c3c(N)ncnn23)cc(C(=O)N[C@@H]2CN(C(=O)C3(F)CC3)C[C@@H]2F)c1Cl [Example 715, 5-[4-amino-5-(trifluoromethyl)pyrrolo[2,1-f][1,2,4]triazin-7-yl]-2-chloro-N-[(3R,4S)-4-fluoro-1-(1-fluorocyclopropanecarbonyl)pyrrolidin-3-yl]-3-methylbenzamide]",0.124
8,"Cc1cc(-c2cc(C(F)(F)F)c3c(N)ncnn23)cc(C(=O)N[C@@H]2CN(C(=O)CC(C)C)C[C@@H]2F)c1Cl [Example 716, 5-[4-amino-5-(trifluoromethyl)pyrrolo[2,1-f][1,2,4]triazin-7-yl]-2-chloro-N-[(3R,4S)-4-fluoro-1-(3-methylbutanoyl)pyrrolidin-3-yl]-3-methylbenzamide]",0.0087
9,"Cc1cc(-c2cc(C(F)(F)F)c3c(N)ncnn23)cc(C(=O)N[C@@H]2CN(C(=O)CC(F)(F)F)C[C@@H]2F)c1Cl [Example 717, 5-[4-amino-5-(trifluoromethyl)pyrrolo[2,1-f][1,2,4]triazin-7-yl]-2-chloro-N-[(3R,4S)-4-fluoro-1-(3,3,3-trifluoropropanoyl)pyrrolidin-3-yl]-3-methylbenzamide]",0.029
10,"Cc1cc(-c2cc(C(F)(F)F)c3c(N)ncnn23)cc(C(=O)N[C@@H]2CN(C(=O)C(C)C(F)(F)F)C[C@@H]2F)c1Cl (stereo partly drawn) [Example 718, 5-[4-amino-5-(trifluoromethyl)pyrrolo[2,1-f][1,2,4]triazin-7-yl]-2-chloro-N-[(3R,4S)-4-fluoro-1-(3,3,3-trifluoro-2-methylpropanoyl)pyrrolidin-3-yl]-3-methylbenzamide]",0.0073
11,"CC(C)CC(=O)N1C[C@H](F)[C@H](NC(=O)c2c(F)ccc(-c3cc(C(F)(F)F)c4c(N)ncnn34)c2F)C1 [Example 719, 3-[4-amino-5-(trifluoromethyl)pyrrolo[2,1-f][1,2,4]triazin-7-yl]-2,6-difluoro-N-[(3R,4S)-4-fluoro-1-(3-methylbutanoyl)pyrrolidin-3-yl]benzamide]",0.122
12,"Nc1ncnn2c(-c3ccc(F)c(C(=O)N[C@@H]4CN(C(=O)CC(O)(C(F)(F)F)C(F)(F)F)C[C@@H]4F)c3F)cc(C(F)(F)F)c12 [Example 720, 3-[4-amino-5-(trifluoromethyl)pyrrolo[2,1-f][1,2,4]triazin-7-yl]-2,6-difluoro-N-[(3R,4S)-4-fluoro-1-[4,4,4-trifluoro-3-hydroxy-3-(trifluoromethyl)butanoyl]pyrrolidin-3-yl]benzamide]",0.01
13,"CC(O)(CC(=O)N1C[C@H](F)[C@H](NC(=O)c2c(F)ccc(-c3cc(C(F)(F)F)c4c(N)ncnn34)c2F)C1)C(F)(F)F (stereo partly drawn) [Example 721, 3-[4-amino-5-(trifluoromethyl)pyrrolo[2,1-f][1,2,4]triazin-7-yl]-2,6-difluoro-N-[(3R,4S)-4-fluoro-1-(4,4,4-trifluoro-3-hydroxy-3-methylbutanoyl)pyrrolidin-3-yl]benzamide]",0.129
14,"C[C@@](O)(C(=O)N1C[C@H](F)[C@H](NC(=O)c2c(F)ccc(-c3cc(C(F)(F)F)c4c(N)ncnn34)c2F)C1)C(F)(F)F [Example 722, 3-[4-amino-5-(trifluoromethyl)pyrrolo[2,1-f][1,2,4]triazin-7-yl]-2,6-difluoro-N-[(3R,4S)-4-fluoro-1-[(2R)-3,3,3-trifluoro-2-hydroxy-2-methylpropanoyl]pyrrolidin-3-yl]benzamide]",0.009
15,"Nc1ncnn2c(-c3ccc(F)c(C(=O)N[C@@H]4CN(C(=O)C5CC(F)C5)C[C@@H]4F)c3F)cc(C(F)(F)F)c12 (stereo partly drawn) [Example 723, 3-[4-amino-5-(trifluoromethyl)pyrrolo[2,1-f][1,2,4]triazin-7-yl]-2,6-difluoro-N-[(3R,4S)-4-fluoro-1-(3-fluorocyclobutanecarbonyl)pyrrolidin-3-yl]benzamide]",0.252
16,"Nc1ncnn2c(-c3ccc(F)c(C(=O)N[C@@H]4CN(C(=O)c5ccccc5F)C[C@@H]4F)c3F)cc(C(F)(F)F)c12 [Example 725, 3-[4-amino-5-(trifluoromethyl)pyrrolo[2,1-f][1,2,4]triazin-7-yl]-2,6-difluoro-N-[(3R,4S)-4-fluoro-1-(2-fluorobenzoyl)pyrrolidin-3-yl]benzamide]",0.068
17,"CC(C(=O)N1C[C@H](F)[C@H](NC(=O)c2c(F)ccc(-c3cc(C(F)(F)F)c4c(N)ncnn34)c2F)C1)C(F)(F)F (stereo partly drawn) [Example 726, 3-[4-amino-5-(trifluoromethyl)pyrrolo[2,1-f][1,2,4]triazin-7-yl]-2,6-difluoro-N-[(3R,4S)-4-fluoro-1-(3,3,3-trifluoro-2-methylpropanoyl)pyrrolidin-3-yl]benzamide]",0.234
